Experimental data reported in PubChem BioAssay AID588795 (National Center for Advancing Translational Sciences (NCATS), 2011).
About 1,400 (0.36%) of roughly 390,000 compounds were called active. This list was built around the results that the source calls inconclusive (neither active nor inactive); the mix of calls is not that of the screen. The call rests on the fitted dose curve; in most records, active means well fitted inhibition curve with a large enough effect; inconclusive means small, poorly fitted or top-dose-only effect; inactive means no such curve, though single readings can be large or run the other way. Potencies of inconclusive entries are doubtful fits and often do not repeat.

biological target: Flap endonuclease 1 (Homo sapiens) (UniProt P39748); test: qHTS Assay for the Inhibitors of Human Flap endonuclease 1 (FEN1).; further: nearly all actives have a fitted effect of over 65% in size; settings: Recombinant FEN1 flap cleavage, fluorescence, 15 min; series mostly up to 114 µM
Chain of UniProt P39748 (P39748 whole entry, looked up): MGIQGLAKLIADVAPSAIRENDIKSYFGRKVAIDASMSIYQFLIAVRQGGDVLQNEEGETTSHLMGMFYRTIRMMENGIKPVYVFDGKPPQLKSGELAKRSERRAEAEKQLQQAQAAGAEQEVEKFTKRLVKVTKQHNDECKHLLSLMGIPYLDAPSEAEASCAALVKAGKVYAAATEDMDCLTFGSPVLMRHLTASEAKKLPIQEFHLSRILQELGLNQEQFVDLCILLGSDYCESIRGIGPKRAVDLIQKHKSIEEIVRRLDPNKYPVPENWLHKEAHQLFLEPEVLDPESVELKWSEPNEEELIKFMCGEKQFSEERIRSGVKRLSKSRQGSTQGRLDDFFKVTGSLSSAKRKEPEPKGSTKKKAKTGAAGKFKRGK
Summary of the method: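 FEN1 at 10 nM, compound pretreatment for 15 min (room temperature), 50 nM final substrate to initiate; endpoint reads at 0 and 15 min; DMSO-only plates used as vehicle background.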
Potency means the concentration at half of the fitted maximal effect; tags describe the fitted curve by direction and shape.

| SMILES | Potency |
| --- | --- |
| Cc1cccc(C)c1OCCOC(=O)c1n[nH]c2ccccc12 | inconclusive: 50.1 µM [inhibitor, partial curve, poor fit] |
| O=C(c1ccc(F)cc1)c1cn(Cc2ccccc2)c2cc3c(cc2c1=O)OCO3 | inactive |
| C=CCc1cccc2cc(-c3nc4ccc(C)cc4[nH]3)c(=O)oc12 | inconclusive: 100 µM [inhibitor, partial curve, poor fit] |
| CC(=O)Nc1ccc(/C=C/c2sc3ccccc3[n+]2CCCCI)cc1 | inconclusive: 56.2 µM [inhibitor, partial curve, poor fit] |
| C#CCOCCOCCOCCNc1nc(N2CCN(C(=O)CCCCCCCCCCNC(=O)[C@@H](CCSC)n3cc(CCO)nn3)CC2)nc(N2CCN(C(=O)CCCCCCCCCCNC(=O)[C@H](CCCN=C(N)N)n3cc(C[C@@H](C)CC)nn3)CC2)n1 | active: 20 µM |
| O=C(NCc1ccco1)c1ccc(COc2ccccc2[N+](=O)[O-])o1 | inactive |
| Cc1ccc(S(=O)(=O)Nc2ccc(O)c3ncccc23)cc1 | active: 12.6 µM |
| CCN1/C(=C/c2ccc3cc(C)ccc3[n+]2CC)Sc2ccc3sccc3c21 | inconclusive: 2.82 µM [inhibitor, full curve, poor fit] |
| COc1ccc(C)cc1S(=O)(=O)N1CCN(C/C=C/c2ccccc2)CC1 | inactive |
| COc1ccccc1CNC(=O)c1ccc2[nH]c(C)c(C)c2c1 | inactive |
| Cc1c(NS(=O)(=O)c2cccc(C(=O)NCc3ccco3)c2)c(=O)n(-c2ccccc2)n1C | inconclusive: 89.1 µM [inhibitor, single point] |
| FC(F)(F)c1cccc(NC(=S)Nc2cccc(NC(=S)Nc3cccc(C(F)(F)F)c3)n2)c1 | inconclusive: 79.4 µM [inhibitor, partial curve, poor fit] |
| CN(C)c1ccc(/C=C/c2cc(Cl)nc3ccccc23)cc1 | inactive |
| CCCOc1cccc(C(=O)N(Cc2sccc2C)C2CCS(=O)(=O)C2)c1 (stereo unspecified) | inactive |
| Cc1ccc(N(C)S(=O)(=O)c2cccc(C(=O)N3CCN(Cc4ccccc4)CC3)c2)cc1 | inconclusive: 0.631 µM [inhibitor, full curve, poor fit] |
| COc1ccc(/C=C2/SC(=S)N(NS(=O)(=O)c3ccc(C)cc3)C2=O)cc1 | inconclusive: 89.1 µM [inhibitor, partial curve, poor fit] |
| CCOC(=O)C(=O)Nc1nnc(C2CCCCC2)s1 | inactive |
| CCOc1cc(OCC)cc(C(=O)Nc2cccc(-c3nc4ccccc4[nH]3)c2)c1 | inconclusive: 100 µM [inhibitor, partial curve, poor fit] |
| COC(=O)C(Cc1ccccc1)NC(=O)COc1ccc(C(C)(C)C)cc1 (stereo unspecified) | inconclusive: 50.1 µM [inhibitor, partial curve, poor fit] |
| COc1ccc(N(C(=O)C2CSC(=O)C2)C(C(=O)NC(C)(C)C)c2ccncc2)cc1 (stereo unspecified) | inactive |
| Cc1cccc(NC(=O)CN2C(=O)C(c3ccccc3)=NC23CCC(C)CC3)c1 (stereo unspecified) | inconclusive: 89.1 µM [inhibitor, partial curve, poor fit] |

| SMILES | Potency |
| --- | --- |
| O=C(O)Cn1nc(-c2ccc(F)cc2)oc1=O | inactive |
| CCn1c2ccccc2c2cc(Nc3cc(C)nc4ncnn34)ccc21 | inconclusive: 17.8 µM [inhibitor, full curve] |
| Cc1nc(-c2ccccn2)nc(SCC(=O)c2ccccc2)c1Cl | inactive |
| COc1cccc(-n2c(C)nc3c(cnn3-c3ccc(C)c(C)c3)c2=O)c1 | inconclusive: 79.4 µM [inhibitor, partial curve, poor fit] |
| COc1cc2c(cc1OC)CN(C(=O)COc1ccccc1C#N)CC2 | inconclusive: 89.1 µM [inhibitor, partial curve, poor fit] |
| COc1ccc2cc(OCC(=O)NNC(=O)Nc3ccc(OC)c(OC)c3)ccc2c1 | inconclusive: 79.4 µM [inhibitor, single point] |
| O=C(Nc1nc(-c2ccccn2)cs1)c1cccc(-n2cnnn2)c1 | inconclusive: 89.1 µM [inhibitor, partial curve, poor fit] |
| COc1ccc2c(c1)c1c(c(=O)n(-c3cc(Cl)ccc3C)c(=O)n1Cc1ccc(F)cc1)n2C | inactive |
| COc1ccccc1CNC(=O)c1cccc(NC(=O)c2ccccc2)c1 | inconclusive: 4.47 µM [inhibitor, partial curve, poor fit] |
| COc1ccccc1CNCC(O)Cn1c2ccccc2c2ccccc21 (stereo unspecified) | inconclusive: 63.1 µM [inhibitor, partial curve, poor fit] |
| O=C(COC(=O)CNC(=O)c1ccccc1)Nc1ccccc1Cl | inactive |
| O=c1c2cccc3c2c(nn1CN1CCOCC1)-c1ccccc1-3 | inconclusive: 17.8 µM [inhibitor, full curve] |
| NC(=O)c1c(NC(=O)COC(=O)c2ccc(O)c(Cl)c2)sc2c1CCCC2 | inconclusive: 79.4 µM [inhibitor, partial curve, poor fit] |
| COC(=O)c1c(NC(=O)CS(=O)(=O)c2ccc(C)cc2)sc2c1CCCCC2 | inactive |
| Cc1cccc(CN2Cc3cccc4c3[C@H](C=CC4)CC2=S)c1 | inconclusive: 50.1 µM [inhibitor, partial curve, poor fit] |
| Cc1ccc(N(Cc2ccc([N+](=O)[O-])cc2)C(=O)c2ccco2)cc1 | inconclusive: 89.1 µM [inhibitor, partial curve, poor fit] |
| COc1ccc(CN([C@H](CO)CC(C)C)S(=O)(=O)N(Cc2ccccc2)[C@H](CO)CC(C)C)cc1 | inconclusive: 39.8 µM [inhibitor, partial curve, poor fit] |
| CCOC(=O)C1=C(CSc2nc(CC)c(C)cc2C#N)OC(N)=C(C#N)C1c1ccccc1 (stereo unspecified) | inactive |
| CCCc1cc(=O)[nH]c(SCC(=O)c2c[nH]c3ccccc23)n1 | inconclusive: 39.8 µM [inhibitor, single point] |
| CCCN(C(=O)c1cc2c(s1)-c1ccccc1OC2)c1ccc(C(C)C)cc1 | inconclusive: 89.1 µM [inhibitor, partial curve, poor fit] |
